Data as given in PubChem BioAssay AID504466 (National Center for Advancing Translational Sciences (NCATS), 2011).
In all, about 330,000 compounds went through this assay and about 4,200 (1.3%) were called active. Inconclusive means that the source gave no clear call. Such entries were picked first, then a sample of the others. Calls follow the shape of the dose curve; as a rule, active = well fitted activation curve with a large enough effect; inconclusive = small, poorly fitted or top-dose-only effect; inactive = no such curve, though single readings can be large or run the other way. Potencies beside an inconclusive call are fits to weak or partial responses and may not hold up.

test: qHTS screen for small molecules that induce genotoxicity in human embryonic kidney (HEK293T) cells expressing luciferase-tagged ELG1; settings: HEK293T ELG1-luciferase reporter, luminescence, 16 h; series mostly up to 46 µM; also: nearly all actives have a fitted effect of over 60% in size
Procedure, shortened: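 DMSO vehicle served as control against compound-treated ELG1-luciferase HEK293T cells; exposure lasted 16 hr at 37 °C and 5% CO2, followed by ONE-Glo luminescence detection after 30 min.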
Potency is read from the fitted curve at half-maximal effect; tags tell the direction and shape of the fitted curve.

SMILES | Potency
Cn1ccnc1SCc1cn2ccccc2n1 | inconclusive: 9.2 µM [activator, partial curve]
CCCOc1ccc2cc(-c3ccccn3)c(=O)oc2c1 | inconclusive: 0.326 µM [activator, partial curve]
O=C(Cn1cnc2scc(-c3ccc(Br)cc3)c2c1=O)N1CCOCC1 | inactive
Cc1ccc(S(=O)(=O)N2CCOCC2)cc1C(=O)OCC(=O)NCc1ccccc1 | inactive
Cc1noc(C)c1NC(=O)Nc1cccc2c1O[C@H](CN(C)C(=O)Nc1ccccc1)[C@@H](C)CN([C@H](C)CO)C2=O | inactive
O=C1CNC(=S)N1c1nc(-c2ccccc2)cs1 | inconclusive: 23.1 µM [activator, single point]
Cc1ccc(/C(N)=N/OC(=O)CCc2ccccc2)cc1 | inconclusive: 20.6 µM [activator, partial curve, poor fit]
CCOC(=O)c1ccc(-n2c(=S)sc3c(=O)[nH]c(C)nc32)cc1 | inactive
COC(=O)CSc1nc2cc3c(cc2cc1C)OCO3 | inconclusive: 23.1 µM [activator, partial curve, poor fit]
N/C(=N\OC(=O)c1cc(Cl)ccc1Cl)c1ccccn1 | inconclusive: 2.31 µM [activator, partial curve]
Cc1cc(C(=O)COC(=O)c2n[nH]c(=O)c3ccccc23)c(C)n1C | inconclusive: 13 µM [activator, partial curve, poor fit]
O=C(Nc1nc(-c2ccc(F)cc2)cs1)c1cccnc1 | inactive
CC(=O)c1ccc(OC(=O)/C=C/c2ccccc2)cc1 | inactive
Cc1ccc(S(=O)(=O)c2c(C)nn(C(C)(C)C)c2OC(=O)c2ccc(Br)o2)cc1 | inactive
CCOC(=O)c1ccc(N/C=C/C(=O)c2ccco2)cc1 | active: 0.731 µM
O=C1Nc2ccc(Br)cc2/C1=C/C(=O)c1ccc2c(c1)OCO2 | inactive
Brc1ccc(-c2nc(-c3ccncc3)no2)cc1 | inconclusive: 4.61 µM [activator, partial curve]
c1ccc2c(-n3cccn3)cccc2c1 | inconclusive: 9.2 µM [activator, single point]
O=C(Nc1cccc2ncccc12)c1ccc(OCc2ccccc2)cc1 | inactive
CCn1c(C)nc2cc(C(=O)NNC(=S)Nc3ccc(Cl)cc3)ccc21 | inactive
Cc1ccc(C(=O)N2CC=C(c3ccccc3)CC2)o1 | inconclusive: 2.06 µM [activator, partial curve, poor fit]
CCOC(=O)/C(C#N)=C/N=c1ccc(C)cn1C | inconclusive: 10.3 µM [activator, partial curve]
COc1ccc(CN(C(=O)c2snc(C(N)=O)c2N)C(C)C(=O)NCc2ccc(F)cc2)cc1 (stereo unspecified) | inactive

SMILES | Potency
Cc1ccc2nc(NC(=O)CSc3nnc(C)c(=O)n3N)sc2c1 | inconclusive: 20.6 µM [activator, partial curve, poor fit]
CCCCn1c(N)c(N(CCC(C)C)C(=O)C2CCCN(C(=O)c3ccc(Cl)cc3)C2)c(=O)[nH]c1=O (stereo unspecified) | inactive
CC(=O)Nc1cccc(NC(=S)Nc2cccc3ccccc23)c1 | inconclusive: 32.6 µM [activator, partial curve, poor fit]
COc1cc(/C=C/[N+](=O)[O-])ccc1OC(=O)c1cc2ccccc2oc1=O | inconclusive: 29.1 µM [activator, single point]
CCC(Sc1nc(C)cc(C)n1)C(=O)Nc1nccs1 (stereo unspecified) | inactive
CC(C)CCOCC(=O)Nc1cccc(C(=O)O)c1 | inconclusive: 1.16 µM [activator, partial curve]
CC1CCCCN1C(=O)c1cc(-c2ccc3c(c2)OCO3)on1 (stereo unspecified) | active: 11.6 µM
Cn1c(CC(=O)Nc2ccccc2)nnc1SCC(=O)Nc1ccc(N2CCOCC2)cc1 | inconclusive: 25.9 µM [activator, partial curve, poor fit]
Cc1ccc(C(=O)N/N=C/c2c[nH]c3ccccc23)o1 | inconclusive: 20.6 µM [activator, partial curve, poor fit]
O=C1NC(c2ccncc2)Nc2sc3c(c21)CCCC3 (stereo unspecified) | inconclusive: 23.1 µM [activator, partial curve, poor fit]
COc1cccc(Nc2nc(-c3ccc(O)cc3)cs2)c1 | inconclusive: 13 µM [activator, partial curve, poor fit]
O=S(=O)(c1ccccc1)N1CCN(c2nc3ccccc3s2)CC1 | inconclusive: 5.8 µM [activator, full curve, poor fit]
CC(C)(C)C(=O)COC(=O)c1cc2ccccc2cc1O | inconclusive: 35.5 µM [activator, single point]
Cc1ccccc1C(=O)N(CC(=O)Nc1sc(C)c(C)c1C(N)=O)C1CCCC1 | inactive
COc1ccc(Cn2c(SCC#N)nc3ccc(N4CCOCC4)cc3c2=O)cc1 | inconclusive: 29.1 µM [activator, single point]
OC1CCCN(c2c3c(nc4cc(-c5cccc(F)c5)nn24)CCCC3)C1 (stereo unspecified) | inconclusive: 10.3 µM [activator, partial curve, poor fit]
Cc1ccc(-c2ccc(/C=N/NC(=O)c3ccccc3O)o2)cc1 | inactive
O=C(NCCc1ccc(Cl)cc1)c1cnc2n(c1=O)CCS2 | inconclusive: 10.3 µM [activator, partial curve]
Cc1cc(NC(=O)c2cc(C3CC3)on2)no1 | inconclusive: 16.4 µM [activator, single point]
O=C(N[C@@H]1c2ccccc2CC[C@@H]1OCc1ccccc1)c1ccc(-c2ccccc2)cc1 | inactive
COc1nc(NCCN2CCOCC2)nc(Nc2ccccc2)n1 | inconclusive: 20.6 µM [activator, partial curve, poor fit]
c1ccc2c(c1)Cn1c-2nc2ccccc21 | inconclusive: 2.06 µM [activator, full curve]
Cc1cc(NC(=O)c2nn3cccnc3c2Cl)no1 | inconclusive: 7.31 µM [activator, partial curve, poor fit]
